Results on 62 compounds are retold here after PubChem BioAssay AID1508623 (National Center for Advancing Translational Sciences (NCATS), 2021).

In all, about 48,000 compounds went through this assay and about 450 (0.94%) were called active. Roughly 19% stayed inconclusive and do not appear here. The call rests on the fitted dose curve; in most records, active means well fitted inhibition curve with a large enough effect; inconclusive means small, poorly fitted or top-dose-only effect; inactive means no such curve, though single readings can be large or run the other way. The list shows a part of the results.

This assay is described as follows: Primary qHTS for Identification of Small Molecule Inhibitors of Huntingtin Promoter Activity. Further: nearly all actives have a fitted effect of over 50% in size. The following applies: HEK293 HTT promoter firefly luciferase reporter (activity 0% = vehicle and -100% = no light), 24 h; series mostly up to 57.5 µM; activity change, negative = inhibition: at the top concentration. A digest of the protocol: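 Firefly luciferase signal from promoter-reporter HEK293 cells was scaled between vehicle (0%) and zero RLU (-100%). Compounds were tested at final concentrations of up to 57.5 uM over 24 h at 37 degrees C. PTC124 at 50 uM final served as control inhibitor.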
(In general: In qHTS, concentration-response curves come from the screen itself.)
Consider `COc1ccc(CNC(=O)Cc2coc3ccc(C(C)C)cc23)cc1`, for which the “activity change, negative = inhibition” value was inactive: -33.6%.
The result for `O=C(CN1C(=O)COc2ccc(S(=O)(=O)N3CCCCC3)cc21)NCc1ccccc1Cl` reads inactive: -13.7%.
Turning to `Cc1cc(Nc2cc(Cl)ccc2C)n2nc(Cc3ccccc3)nc2n1`, the “activity change, negative = inhibition” value is inactive: -10.6%.
`Cc1ccc(C)c(CN2C(=O)c3ccccc3S(=O)(=O)c3ccc(C(=O)N4CCN(C)CC4)cc32)c1`: the “activity change, negative = inhibition” value was inactive: -19%.
With `COc1cccc(CNC(=O)CCc2nc(-c3ccc(C)cc3)no2)c1` the figure was inactive: -36%; with `Cc1cc(OCCn2cc(C(=O)c3ccco3)c3ccccc32)ccc1Cl`, inactive: -26.4%; with `COc1ccccc1Oc1nc2c(C)cccn2c(=O)c1/C=C(\C#N)c1nc2ccccc2[nH]1`, inactive: -9.81% [at 11.5 µM].
In the case of `Cc1nn(CC(=O)NCc2cccc(F)c2)c(=O)c2c(C)n(-c3ccc(Cl)cc3)nc12`, the “activity change, negative = inhibition” value is inactive: -20.4%.
On to `COc1ccc(-n2cc(C(=O)NCc3ccc(Cl)cc3)c3ccccc3c2=O)cc1`, for which the “activity change, negative = inhibition” value was inactive: -2.29%.
Consider `COc1ccc2nc(N(Cc3cccnc3)C(=O)c3ccco3)sc2c1`, for which the “activity change, negative = inhibition” value is inactive: 9.73%.
Consider `Cc1ccc2c(c1)c1c(c(=O)n(-c3ccccc3)c(=O)n1CC(=O)NCCC1=CCCCC1)n2C`, for which the “activity change, negative = inhibition” value was inactive: -6.49%.
As to `CC1CN(C(=O)CCC(=O)NCc2cccs2)c2cc(Cl)ccc2O1` (configuration not stated), the “activity change, negative = inhibition” value was inactive: -28.8%.
The result for `Cc1ccc(CCNC(=O)c2cc3sccc3n2Cc2ccc(Cl)cc2)cc1` reads inactive: -21.5%; that for `CC(C)(C)NCC(O)COc1ccc(NC(=O)NC2CCCCC2)cc1` (configuration not stated), inactive: 10.5%; that for `COc1ccccc1N1CCN(S(=O)(=O)c2cc(-c3cc(C)no3)ccc2C)CC1`, inactive: -6.82%.
For the compound `O=C(c1ccc2c(c1)OCCO2)N(Cc1cccnc1)c1nc2ccc(Cl)cc2s1`, the “activity change, negative = inhibition” value is inactive: 13.8%.
Regarding `Cc1ccc(-c2nnn(CC(=O)N(CC(=O)NCCC(C)C)c3ccc(F)cc3)n2)cc1`, the “activity change, negative = inhibition” value is inactive: -8.68%.
The result for `Cc1ccc(C(C)C)c(OCC(=O)Nc2nc3c(s2)CCCC3)c1` reads inactive: -23.1%; that for `CCN(CC)C(=O)c1cccc(C)c1`, inactive: -1.68%.
The result for `CCCCCOC(=O)c1ccc(Nc2nc(C(=O)OCC)nc3ccccc23)cc1` reads inactive: -10.7%; that for `O=C(NCCc1ccc(F)cc1)C(=O)NCC(c1ccc2c(c1)OCO2)N1CCOCC1` (configuration not stated), inactive: -0.625%.
Regarding `Cc1ccc2nc(-c3c[nH]c4ccccc34)c(Nc3ccccc3)n2c1`, the “activity change, negative = inhibition” value is inactive: 56.5%.
Consider `Cc1coc2c1c(C)cc1oc(=O)c(CC(=O)NCc3ccc(Cl)cc3)c(C)c12`, for which the “activity change, negative = inhibition” value was inactive: -0.252%.
As for `COc1cc(C2NC(=O)N(C)C3=C2C(=O)N(c2ccccc2)C3)ccc1O` (configuration not stated), the “activity change, negative = inhibition” value is inactive: 1.85%.
In the case of `CCC(C)NC(=O)c1sc2nc(C)c(C(=O)Nc3ccc(C)cc3C)c(-c3ccc(Br)cc3)c2c1N` (configuration not stated), the “activity change, negative = inhibition” value was inactive: -14.4%.
With `Cc1ccc2[nH]c(=O)c3cc(C(=O)N4CCN(c5ccccc5F)CC4)sc3c2c1` the figure was inactive: -3.61%.
The result for `O=C(CSc1nc(-c2ccccc2)cc(=O)[nH]1)Nc1ccccc1F` reads inactive: -6.46%.
Turning to `COc1ccc(-c2cnc(NCc3ccc(C)cc3)n2C)cc1`, the “activity change, negative = inhibition” value is inactive: -11.5%.
The result for `CC1=C(C(=O)Nc2ccc(C)c(C)c2)C2(CCCCCC2)OC1=O` reads inactive: -13%; that for `COc1ccc(CCNC(=O)CSc2nc3ccccc3nc2Cc2ccc(C)cc2)cc1OC`, inactive: 1.43%.
With `COc1ccccc1CNC(=O)c1nn(-c2ccc(C)cc2)c(=O)c2c1c1ccccc1n2C`, the “activity change, negative = inhibition” value was inactive: -1.1%.
In the case of `Cc1cccc(CSc2ncc(Cl)c(C(=O)Nc3sc4c(c3C#N)CCCC4)n2)c1`, the “activity change, negative = inhibition” value was inactive: -4.37%.
Take `CCN(CC)c1nc2c(S(=O)(=O)c3ccc(C)cc3)nnn2c2ccsc12`: the “activity change, negative = inhibition” value is inactive: -1.47%.
Consider `COc1ccccc1NC(=O)CSc1oc(-c2cccs2)nc1S(=O)(=O)c1ccc(C)cc1`, for which the “activity change, negative = inhibition” value is inactive: -25.2%.
With `OC[C@H]1O[C@@H](O[C@H]2[C@@H](O)[C@@](O)(CO)O[C@@H]2CO)[C@H](O)[C@@H](O)[C@@H]1O` the figure was inactive: -12.6%; with `O=C(Nc1nnc(S(=O)(=O)N2CCCC2)s1)c1ccccc1Cl`, inactive: -1.67%; with `CCn1ccc2cc(S(=O)(=O)N3CCC(C(=O)NCc4ccc(OC(C)C)cc4)CC3)ccc21`, inactive: 0%.
For the compound `COc1ccc(-c2nc3ccc(C(=O)NCc4ccccc4)cc3nc2-c2ccc(OC)cc2)cc1`, the “activity change, negative = inhibition” value is inactive: 2.19%.
The result for `Cc1ccccc1NC(=O)c1ccccc1NC(=O)c1ccccc1F` reads inactive: 7.88%; that for `CCCSc1nnc2c(n1)OC(CC)N(C(C)=O)c1ccccc1-2` (configuration not stated), inactive: -15.7% [at 11.5 µM].
The result for `O=C(CN1C(=O)COc2ccc(S(=O)(=O)N3CCCCC3)cc21)NCCc1ccc(Cl)cc1` reads inactive: 2.36%; that for `COC(=O)COc1ccc(Oc2nc(NC(C)(C)C)nc(N3CCOCC3)n2)nn1`, inactive: -5.11%; that for `CCOc1ccccc1CNC(=O)Cn1nc(C)c2nn(-c3ccc(Cl)cc3)c(C)c2c1=O`, inactive: -25.4%.
Turning to `COc1ccc(N2CCN(S(=O)(=O)c3c(C)nc4sc(C)cn4c3=O)CC2)cc1`, the “activity change, negative = inhibition” value was inactive: 3.62%.
As for `CC1=C(c2ccc(C)c(C)c2)S(=O)(=O)N(Cc2ccc(C(=O)NCc3ccc(C)cc3)cc2)C1=O`, the “activity change, negative = inhibition” value is inactive: -4.46%.
In the case of `COc1ccc(Cc2nc3c4cnn(-c5ccccc5Br)c4ncn3n2)cc1`, the “activity change, negative = inhibition” value is inactive: -0.88%.
With `Cc1cccc(OCC(=O)NCc2ccc3c(c2)CCN3C(=O)c2ccccc2)c1` the figure was inactive: -14.6%; with `COc1ccc(/C=C/C(=O)Nc2ccc(Cl)c(Cl)c2)cc1OC`, inactive: 14.6%; with `CCOc1ccc(NC(=O)c2cc(CN3CCCC3)on2)cc1`, inactive: 1.69%.
With `Cc1c(C(=O)NCc2ccc(F)cc2)sc2nc3n(c(=O)c12)CCC3` the figure was inactive: 1.96%.
In the case of `COc1ccc(-c2ccc(=O)n(CC(=O)Nc3ccc(N(C)C)cc3)n2)cc1`, the “activity change, negative = inhibition” value is inactive: 0%.
With `CSc1ccc(C2c3c(oc4ccc(F)cc4c3=O)C(=O)N2c2ccc(C)cn2)cc1` (configuration not stated) the figure was inactive: 0.901%; with `Cc1cccc(N(C)C(=O)C2CCN(S(=O)(=O)c3cccc4nonc34)CC2)c1`, inactive: 7.66%; with `Cc1ccc2nc(Nc3ccc(Br)cc3)nc(-c3ccccc3)c2c1`, inactive: -7.54%.
With `CCOc1ccc2oc(=O)cc(CN3CCN(C(=O)c4ccc(Cl)cc4)CC3)c2c1` the figure was inactive: -25.1%; with `CCCCc1nn2c(=O)cc(COC(=O)CNC(=O)c3ccccc3C)nc2s1`, inactive: -17.2%; with `CCN(CC)CCOc1ccc(C(O)(Cc2ccc(Cl)cc2)c2ccc(C)cc2)cc1` (configuration not stated), inactive: 5.56%.
Regarding `CCc1cccc(CC)c1NC(=O)Cc1csc(C)n1`, the “activity change, negative = inhibition” value is inactive: -8.42%.
The result for `Cc1cccc(CN2C(=O)c3ccccc3Sc3ccc(C(=O)NCCc4ccccc4)cc32)c1` reads inactive: -24%.
In the case of `Cc1cc(Nc2cccc(F)c2)n2nc(-c3ccco3)nc2n1`, the “activity change, negative = inhibition” value is inactive: -8.64%.
Regarding `NC(=O)C1(N2CCCCC2)CCN(C(=O)Nc2ccc(Cl)c(Cl)c2)CC1`, the “activity change, negative = inhibition” value was inactive: -12.4%.
The result for `COc1cccc(NC(=O)c2sc3nc(C)c(C(=O)Nc4ccc(C)cc4C)c(-c4ccc(Br)cc4)c3c2N)c1` reads inactive: -32.9%.
